Data from patent US20240173425A1, “HUMAN CD33 ANTIBODIES AND GLUCOCORTICOID CONJUGATES” (Eli Lilly and Company, priority 2022, published 2024).

Tests used:
[1] = molecular target: T1, human CD33 ECD 18-232-His (Homo sapiens, UniProt P20138); experiment: Binding affinity and kinetics by surface plasmon resonance (Biacore 8K); conditions: 37° C., 1:1 binding model
T1 construct: CD33 ECD 18-232-His proteins
Experimental: (§1) The affinity and binding kinetics of the exemplified anti-human CD33 antibodies to human and cynomolgus monkey CD33 ECD 18-232-His proteins was determined by surface plasmon resonance using Biacore 8K (GE Healthcare). Briefly, per the Instrument Handbook the antibody was captured on a Biacore Protein A chip followed by flowing CD33 ECD from 200 nM down to 0.782 nM in 2-fold serial dilution in PBS-P20-BSA (0.005% surfactant P20, 0.1 mg/mL BSA). All measurements were carried out at 37° C. Multi-cycle kinetics setting that ran each analyte concentration in a separate cycle regenerating the surface after each sample injection was used. The regeneration was optimized to maintain consistent surface properties from cycle to cycle. Each cycle started with a 3 minute injection of 0.1 μg/mL of the antibody at 10 μl/min flow rate, followed by 3 min injection of antigen at 50 μl/min flow rate and a 15 min dissociation phase in PBS-P20-BSA. The chip surface was then regenerated with 30 seconds injection of pH 1.5, 10 mM glycine buffer at 50 μl/min flow rate three times. The data was fit to a 1:1 binding model to derive ka and kd, and to calculate KD.

[2] = test system: cynomolgus monkey CD33 ECD 18-232-His; experiment: as above; conditions: for ka / kd: cynomolgus monkey CD33 ECD, 37° C., 1:1 binding model
Experimental: as §1

CD33 on human monocytes [3] = molecular target: T2, CD33 on human monocytes (Homo sapiens, UniProt P20138); experiment: CD33 cell surface receptor availability post-internalization; format: cell-based; conditions: antibody 30 μg/mL
T2 construct: endogenous in cells; host or cells: primary human PBMCs / monocytes from donor blood
Experimental: CD33 cell surface receptor availability on monocytes after internalization upon binding to the exemplified anti-human CD33 antibodies was evaluated. Briefly, human monocytes isolated from PBMC were seeded at 2×10^4 cells/well in a 96-well plate and incubated on ice for 60 minutes to impede internalization. Exemplified anti-human CD33 antibodies (30 μg/mL) were added to the cells and allowed to bind for 30 minutes on ice. 100 μL culture media was then added to the cells and plates were placed in the incubator for 3.5, 24, 48, 72, and 96-hour timepoints at 37° C. The baseline samples were stained immediately representing the exemplified anti-human CD33 antibody surface binding before internalization. Cells were Fc blocked for 20 minutes, then stained with Alexa Fluor-647 labeled anti-human CD33 exemplified antibodies, Alexa Fluor-700 anti-human CD45 (HI30) and Brilliant Violet-605 anti-human CD11b (ICRF44) for 30 minutes on ice. Cells were analyzed by flow cytometry.

[4] = Thermal stability by Differential Scanning Calorimetry; format: physicochemical; conditions: DSC, PBS, pH 7.2
Experimental: (§2) Aggregation from cell culture: The exemplified anti-human CD33 antibodies were transiently expressed in CHO cells. […] The viscosity for each was measured using VROC® initium (RheoSense) at 15° C. using the average of 9 replicate measurements. […] Concentrated samples were incubated for a period of 4 weeks at 5° C. and 35° C., respectively. Following incubation, samples were analyzed for the percentage of high molecular weight (% HMW) species with size exclusion chromatography (SEC).

[5] = Aggregation from cell culture and titer after Protein A purification; format: physicochemical; conditions: transient expression in CHO cells
Experimental: as §2

Viscosity (VROC initium) = format: physicochemical; conditions: about 125 mg/mL, 5 mM histidine pH 6, 15° C.
Experimental: as §2

human PBMCs [6] = experiment: Proinflammatory cytokine modulation in LPS-stimulated PBMCs; format: cell-based; conditions: LPS 100 pg/mL, 24 hours
Experimental: (§3) PBMCs were used to mimic in vivo conditions. […] The cells were then stimulated with LPS (Sigma cat. L2880) at 100 pg/mL in a 37° C. incubator for 24 hours. Culture supernatants were collected to measure the indicated cytokines (Proinflammatory Panel II (human) 4-Plex kits, MSD, K15053D-2).

[7] = test system: primary human monocyte cells; experiment: Antibody internalization (pHrodo Red, flow cytometry); format: cell-based; conditions: pHrodo-labeled antibodies 10 μg/mL, 2 hours at 37° C.
Experimental: Exemplified anti-human CD33 antibodies were labeled with pHrodo™ Red, amine-reactive dye (Thermo Fisher, P36014). The pH-sensitive dye was a non-fluorescent when outside the cells but fluoresces brightly in acidic low-pH lysosomes. This property allows visualization and qualification of the internalization of an antibody by flow cytometry. Human PBMCs (500 K/well) were incubated on ice in FACS buffer for 30 min, to quiesce baseline internalization. Cells were stained with pHrodo-labeled antibodies (10 μg/mL) in FACS buffer for 1 hour on ice then transferred to 37° C. for 2 hours. Cells were then stained with the remaining panel of surface detection marker: CD45 mAb (clone HI30); CD11b (clone ICRF44); CD14 (clone M5E2).

CD33 on human monocytes [8] = molecular target: T2, CD33 on human monocytes; experiment: Cell surface binding potency, FACS assay; format: cell-based; conditions: human PBMCs, 4° C. for 30 mins
Experimental: Human PBMCs were isolated from human blood samples by standard Ficoll-Paque™ plus (GE […]) density gradient centrifugation methods. Freshly isolated cells PBMCs were resuspended at 2×10^6 cells/mL and allowed to rest for 15 minutes at room temperature, then plated at 100 μL/well into a round bottom 96-well plate (COSTAR®) and washed with FACS buffer (PBS containing 2% fetal bovine serum from Corning®). Exemplified anti-human CD33 antibodies and the respective control IgG antibodies conjugated to Alexa Fluor® 647 according to manufacturer's protocol (Thermo Fisher Scientific) were added to the wells and diluted 4-fold in duplicate. Equivalent volume of 2× antibody cocktail containing: PE-Cy5 anti-human CD14 Antibody (clone M5E2), Per-CP anti-human CD45 Antibody (clone H130), FITC anti-human CD11b (clone ICRF44), and Alexa Fluor-647 anti-human CD66b (G10F5) was then added to the wells. Cells were incubated at 4° C. for 30 mins, washed twice with FACS buffer and resuspended in a final volume of 100 μl FACS buffer. Viability dye, Live/Dead Yellow (Thermo Fisher Scientific, L34968), was added and the samples were analyzed via a flow cytometer (LSRFortessa™ X-20; BD BIOSCIENCES). Data analysis was performed using FlowJo software and statistical analysis was performed using GraphPad Prism 9. Data represents the mean fluorescence intensity (MFI) of CD33 expressing cells from monocytes or neutrophils.

[9] = Aggregation upon temperature stress (SEC); format: physicochemical; conditions: about 100 mg/mL, 5 mM histidine pH 6.0, SEC
Experimental: as §2

human PBMCs [10] = experiment: Immune cell depletion, total viable cell count; format: cell-based
Experimental: as §3

[11] = test system: human plasmacytoid dendritic cells (pDCs); experiment: Plasmacytoid dendritic cell differentiation assay; format: cell-based; conditions: human PBMCs, IL-3 supplemented media, CpG stimulation
Experimental: The differentiation of pDC was measured by flow cytometry. The functional effects of the pDC were measured by type I IFN (IFNα) production.

T2 sequence (P20138 18-364): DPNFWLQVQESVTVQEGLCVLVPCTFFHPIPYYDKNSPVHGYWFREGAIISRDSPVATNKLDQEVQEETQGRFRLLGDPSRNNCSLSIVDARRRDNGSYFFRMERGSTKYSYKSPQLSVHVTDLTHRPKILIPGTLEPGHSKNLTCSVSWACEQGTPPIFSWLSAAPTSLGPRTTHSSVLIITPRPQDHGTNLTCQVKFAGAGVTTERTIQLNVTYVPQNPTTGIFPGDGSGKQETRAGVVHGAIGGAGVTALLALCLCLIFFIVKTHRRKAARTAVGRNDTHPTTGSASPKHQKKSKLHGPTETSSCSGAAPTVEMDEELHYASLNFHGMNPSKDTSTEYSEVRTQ
T1 sequence (P20138 18-232): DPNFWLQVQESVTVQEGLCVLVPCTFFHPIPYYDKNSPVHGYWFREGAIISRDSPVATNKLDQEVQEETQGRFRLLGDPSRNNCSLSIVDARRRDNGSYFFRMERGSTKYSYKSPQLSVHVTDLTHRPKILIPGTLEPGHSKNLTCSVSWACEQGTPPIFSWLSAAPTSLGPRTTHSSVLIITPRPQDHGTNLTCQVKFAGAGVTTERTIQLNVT

Molecule	ka [1]	kd [1]	ka [2]	kd [2]	Tm2 [4]	% HMW species after Protein A chromatography [5]	sCHO titer [5]	Viscosity (Viscosity (VROC initium))	Tm1 [4]	Tonset [4]	binding to cell surface CD33 on human monocytes (CD33 on human monocytes [8])	% HMW after 4-week incubation at 5° C. [9]	% HMW after 4-week incubation at 35° C. [9]	also measured
Ab1: anti-human CD33 antibody, HC SEQ ID NO: 21 and LC SEQ ID NO: 22, IgG1AAA backbone (antibody) heavy: [about 100 residues not printed]EYSNYDYWGQGTLVTVSSASTKGPCVFPLAPSSKSTSGGTAALGCLVKDYFPEPVTVSWNSGALTSGVHTFPAVLQSSGLYSLSSVVTVPSSSLGTQTYICNVNHKPSNTKVDKRVEPKSCDKTHTCPPCPAPEAAGGPSVFLFPPKPKDTLMISRTPEVTCVVVDVSHEDPEVKFNWYVDGVEVHNAKTKPREEQYNSTYRVVSVLTVLHQDWLNGKEYKCKVSNKALAAPIEKTISKAKGQPREPQVYTLPPSREEMTKNQVSLTCLVKGFYPSDICVEWESNGQPENNYKTTPPVLDSDGSFFLYSKLTVDKSRWQQGNVFSCSVMHEALHNHYTQKSLSLSPGK light: DIQMTQSPSSLSASVGDRVTITCQASQDVFRYLNWYQQKPGKAPKLLIYDASNLQTGVPSRFSGSGSGTDFTFTISSLQPEDIATYYCQQYEDLPTFGPGTKVDIKRTVAAPSVFIFPPSDEQLKSGTASVVCLLNNFYPREAKVQWKVDNALQSGNSQESVTEQDSKDSTYSLSSTLTLSKADYEKHKVYACEVTHQGLSSPVTKSFNRGEC	346000 M⁻¹ s⁻¹	118000 s⁻¹	2550 M⁻¹ s⁻¹	0.0615 s⁻¹	79 °C	2.67%	1.7 g/L	5.5 cP	–	–	–	–	–	Kd ([2]; unit inferred): 24.1 µM; % cell surface CD33 positive cells post internalization (CD33 on human monocytes [3]; 3.5 hours): 1.06 ± 0.339%; % cell surface CD33 positive cells post internalization (CD33 on human monocytes [3]; 24 hours): 1.935 ± 0.884%; % cell surface CD33 positive cells post internalization (CD33 on human monocytes [3]; 48 hours): 9.195 ± 1.260%; % cell surface CD33 positive cells post internalization (CD33 on human monocytes [3]; 72 hours): 14.185 ± 1.335%; % cell surface CD33 positive cells post internalization (CD33 on human monocytes [3]; 96 hours): 31.9 ± 2.183%; % cell surface CD33 positive cells post internalization (CD33 on human monocytes [3]; Baseline): 1.1 ± 0.481%
Ab2 GC conjugate (conjugate) heavy: [about 100 residues not printed]TYSNYDYWGQGTLVTVSSASTKGPCVFPLAPSSKSTSGGTAALGCLVKDYFPEPVTVSWNSGALTSGVHTFPAVLQSSGLYSLSSVVTVPSSSLGTQTYICNVNHKPSNTKVDKRVEPKSCDKTHTCPPCPAPEAAGGPSVFLFPPKPKDTLMISRTPEVTCVVVDVSHEDPEVKFNWYVDGVEVHNAKTKPREEQYNSTYRVVSVLTVLHQDWLNGKEYKCKVSNKALAAPIEKTISKAKGQPREPQVYTLPPSREEMTKNQVSLTCLVKGFYPSDICVEWESNGQPENNYKTTPPVLDSDGSFFLYSKLTVDKSRWQQGNVFSCSVMHEALHNHYTQKSLSLSPGK light: DIQMTQSPSSLSASVGDRVTITCQASQPTFNYLNWYQQKPGKAPKLLIYDASNLQTGVPSRFSGSGSGTDFTFTISSLQPEDIATYYCQQYEDLPTFGPGTKVDIKRTVAAPSVFIFPPSDEQLKSGTASVVCLLNNFYPREAKVQWKVDNALQSGNSQESVTEQDSKDSTYSLSSTLTLSKADYEKHKVYACEVTHQGLSSPVTKSFNRGEC	439000 M⁻¹ s⁻¹	0.000645 s⁻¹	1.03e+06 M⁻¹ s⁻¹	0.00478 s⁻¹	77.0 °C	–	–	7.3 cP	64.0 °C	57.8 °C	bound human CD33 expressed on the monocyte cell surface with desirable binding potency	0.95%	3.08%	% Inhibition of human IL-6 secretion at 200 nM (human PBMCs [6]): 78.604 ± 0.836%; % Inhibition of human TNFa secretion at 200 nM (human PBMCs [6]): 80.469 ± 2.579%; % Internalization [7]: 86.55 ± 6.859%; Total Viable Cell Count (human PBMCs [10]; LPS Stimulation): 1.57 ± 0.16 ×10^6 cells/mL; Total Viable Cell Count (human PBMCs [10]; No LPS): 1.61 ± 0.07 ×10^6 cells/mL; % Inhibition of human IFNα secretion [11]: 95.62 ± 1.57%; % Inhibition of pDC cell differentiation ([11]; flow cytometry): 91.89 ± 6.37%
Ab3: anti-human CD33 antibody, HC SEQ ID NO: 9 and LC SEQ ID NO: 15, IgG1AAA backbone (antibody) heavy: [about 100 residues not printed]TYSNYDYWGQGTLVTVSSASTKGPCVFPLAPSSKSTSGGTAALGCLVKDYFPEPVTVSWNSGALTSGVHTFPAVLQSSGLYSLSSVVTVPSSSLGTQTYICNVNHKPSNTKVDKRVEPKSCDKTHTCPPCPAPEAAGGPSVFLFPPKPKDTLMISRTPEVTCVVVDVSHEDPEVKFNWYVDGVEVHNAKTKPREEQYNSTYRVVSVLTVLHQDWLNGKEYKCKVSNKALAAPIEKTISKAKGQPREPQVYTLPPSREEMTKNQVSLTCLVKGFYPSDICVEWESNGQPENNYKTTPPVLDSDGSFFLYSKLTVDKSRWQQGNVFSCSVMHEALHNHYTQKSLSLSPGK light: DIQMTQSPSSLSASVGDRVTITCQASQPTYIYLNWYQQKPGKAPKLLIYDASNLQTGVPSRFSGSGSGTDFTFTISSLQPEDIATYYCQQYEDLPTFGPGTKVDIKRTVAAPSVFIFPPSDEQLKSGTASVVCLLNNFYPREAKVQWKVDNALQSGNSQESVTEQDSKDSTYSLSSTLTLSKADYEKHKVYACEVTHQGLSSPVTKSFNRGEC	570000 M⁻¹ s⁻¹	0.000486 s⁻¹	1.34e+06 M⁻¹ s⁻¹	0.00108 s⁻¹	79.68 °C	1.39%	4.6 g/L	7.7 cP	70.93 °C	64.6 °C	binding of Ab3 to the monocyte cell surface	<0.1%	1.58%	–
